# Data published in the supplement of paper PMC3334620.
# The full ranking holds about 33,000 sequences; the median of “E-score (-0.5 to 0.5)” is about -0.035, and the highest 2% start at about 0.34. The list shows a part of the results.
# Target: T1, Mot3 (UniProt P54785)
# T1 sequence: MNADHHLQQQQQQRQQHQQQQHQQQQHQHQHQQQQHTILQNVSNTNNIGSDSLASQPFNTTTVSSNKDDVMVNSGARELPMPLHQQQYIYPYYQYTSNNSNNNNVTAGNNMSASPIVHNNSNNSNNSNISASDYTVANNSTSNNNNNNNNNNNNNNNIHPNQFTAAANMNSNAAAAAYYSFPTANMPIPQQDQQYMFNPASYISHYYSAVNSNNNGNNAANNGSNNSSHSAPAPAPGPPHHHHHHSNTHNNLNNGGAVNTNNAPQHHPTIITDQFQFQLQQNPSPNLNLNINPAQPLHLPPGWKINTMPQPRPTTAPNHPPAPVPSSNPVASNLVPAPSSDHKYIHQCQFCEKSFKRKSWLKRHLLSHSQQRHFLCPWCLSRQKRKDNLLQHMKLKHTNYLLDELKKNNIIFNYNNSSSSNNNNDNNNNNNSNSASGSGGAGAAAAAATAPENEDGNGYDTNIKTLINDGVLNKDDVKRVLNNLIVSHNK
# Test: PBM E-score (8-mer binding enrichment) (E-score (-0.5 to 0.5)); higher = stronger / more preferred TF binding; most listed sequences are background and not binding sites
# Conditions: protein concentration: 200 nM; construct: GST-full length
# Method in brief: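 Each ungapped eight-base word and its reverse complement, pooled, received an E-score from the Universal PBM Analysis Suite. Underlying scans, normalised with masliner, recorded fluorescent anti-GST bound to GST-tagged yeast transcription factors. These were applied at about 100-200 nM to universal all-10-mer Agilent arrays double-stranded by primer extension.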
row,Sequence,PBM E-score
1,ATTATAGG,0.136
2,AAACCAAC,-0.0131
3,ACACCAAT,0.0322
4,TCCTGACA,0.119
5,CTATATGA,0.0308
6,CCTCCGGC,-0.31
7,ACCAGGAT,-0.105
8,GGGTATAC,0.0475
9,CACCTTCG,-0.0632
10,CGAATTAG,0.0261
11,GCGGACTA,-0.0278
12,CTACTTCA,-0.126
13,CGCACCAC,-0.17
14,ATAAGTGG,-0.135
15,AACGTGCG,0.0588
16,TCGCTGAA,-0.0378
17,GGGCGGTA,-0.29
18,AGGCGGAA,0.101
19,TCGCACAA,-0.0537
20,AGGCAACA,0.482
21,ATACATTG,0.173
22,ATGTAGGC,0.361
23,ACTAAAGA,0.0266
24,CAGTTTTA,0.0825
25,ACCCTAGA,0.00157

row,Sequence,PBM E-score
1,CTACCAAC,0.134
2,CTTACCGC,-0.061
3,AGACGCAG,-0.0464
4,GGACCGCA,-0.223
5,ACTCAACA,0.287
6,CGTGAGGA,-0.178
7,GACGCTGC,-0.0452
8,GCCAATGA,-0.225
9,AGTTACCC,-0.036
10,AGAATTTC,-0.145
11,ATCCGGTA,-0.0352
12,ATCCGGAT,-0.0809
13,ATGTCCAG,-0.195
14,AGAGATGC,0.00117
15,CCAAAGGA,5e-05
16,ACATCAAA,0.109
17,ATTTGAAA,0.0527
18,ACAACCCT,0.0664
19,ACCGTACG,-0.116
20,GGATCGAC,-0.145
21,CTTCAAAG,-0.106
22,ATCAGGAT,-0.12
23,CAGTCCAC,-0.0523
24,CCAGGTAG,-0.141
25,CGACGTAG,-0.113

row,Sequence,PBM E-score
1,CAATTCGA,0.0209
2,GCTTATCC,-0.179
3,ATGTACAG,0.247
4,CAATCCTC,-0.147
5,CGGCCATC,-0.292
6,ACGAATCA,0.0682
7,AATATGCT,-0.0891
8,AGTGGGGG,-0.307
9,AGAAGTTG,-0.131
10,ATGGAGCC,0.023
11,TAATGTGA,0.117
12,GGCAGAGA,-0.0955
13,CCAGCTTA,-0.0333
14,AATATAAG,0.117
15,AACCTGAT,0.00552
16,AATACTGT,0.0593
17,CACCGGCG,-0.0729
18,AACTGCAT,0.0343
19,TGACGCAA,-0.00663
20,AGATATTG,-0.093
21,AACTCCTA,0.0209
22,CCGTTTGC,-0.122
23,GAGGACTC,-0.168
24,CTGTGGAC,-0.203
25,CCCCGGGC,-0.283

row,Sequence,PBM E-score
1,GTAGTTCA,0.0323
2,CAAGGCAC,0.488
3,AAGCACTG,-0.0039
4,GTACCTGA,0.402
5,TATAAGCA,0.0177
6,ATCGGGCG,-0.16
7,CGATGAGC,-0.178
8,AATAGTAC,0.137
9,ATGCGCAT,0.293
10,AAGGTGGC,-0.095
11,CTATGAAG,-0.0173
12,GCGTGAAC,0.0165
13,CGTACGAG,-0.148
14,CGTTTGAA,-0.0507
15,ACTCTATC,-0.0435
16,GGTGCTTA,-0.0994
17,ATACGTTC,0.0323
18,CAAATCGA,0.0103
19,GATACGAA,0.0707
20,ACAGTACG,0.173
21,GACGCCGC,-0.268
22,ACCCGGCA,-0.316
23,CAACAAAG,0.15
24,CCGCAATA,-0.0667
25,AAATAATT,0.0933

row,Sequence,PBM E-score
1,GCGCCCCC,-0.248
2,CCGTCGAG,-0.0153
3,ATTTTGCG,-0.0408
4,AAGGGTTA,0.0507
5,CTACGCTC,-0.0123
6,ATCTCCTC,-0.0293
7,AGTAGGGA,-0.0867
8,GCTCTGTA,0.00681
9,AGTAAAAA,0.16
10,CCGAATGA,-0.243
11,CGGCGCAC,-0.223
12,AGCCTCAC,-0.292
13,ACGGGGGG,-0.118
14,ACCACCGT,-0.106
15,AATGAACC,-0.129
16,AATATTCC,-0.0463
17,ACAAAGGG,-0.0152
18,CGGCTACG,-0.205
19,GAGTCTAA,-0.0987
20,CGACAGAA,-0.216
21,CGTGCCAC,-0.0877
22,GCTTTCAA,0.0658
23,GGCACACA,0.29
24,CGTGTTAA,0.418
25,CATCCGAG,-0.127

row,Sequence,PBM E-score
1,ATACTGTC,0.114
2,CTCCTGCA,-0.092
3,AGGCGCGC,0.114
4,AGAAGTCA,0.0581
5,ATGTTTAA,0.285
6,AGAGAACG,0.0344
7,GCCAGGGA,-0.0848
8,ATCACAAA,0.00583
9,AACATCGA,0.184
10,CCGTTAAA,0.118
11,AGTCCTTA,-0.0443
12,CTCAGAAC,0.0654
13,CACAGCCG,-0.192
14,GGAGCTCA,-0.0924
15,ACAGGCTC,0.404
16,ATTGCTAG,-0.124
17,AGCGTGGA,-0.226
18,GGGGTAAC,-0.0357
19,CGGTTCAA,-0.0702
20,CACTCCAC,-0.0184
21,ATCTAGGC,0.0434
22,TCACGAAA,0.0869
23,ACGCTTCG,-0.0564
24,CGCCGGCC,-0.27
25,AGACTCCT,-0.297

row,Sequence,PBM E-score
1,CCCTTCGG,-0.201
2,AAGGCTCG,0.235
3,ACTACCGC,-0.0469
4,CAACCTGC,0.0356
5,ACCGCGGC,-0.114
6,TGCCTCAA,0.365
7,AGACTCCC,-0.39
8,CGCGATCA,-0.0397
9,CCTATTAC,0.344
10,CACCTCTG,-0.129
11,ACGACCCT,-0.0707
12,AGGTGGTA,-0.0557
13,ACGTTTCT,0.101
14,GCGAATGA,0.0414
15,AATCCAAC,0.0744
16,CTCTCCAC,-0.31
17,CGTCTTTC,-0.181
18,ACTTTCTG,0.0367
19,CGACGAAC,-0.104
20,CGCTTATA,-0.0032
21,GCAGTAGA,-0.195
22,AGATGCCC,-0.17
